Measurements taken from the RNAGym collection of RNA variant scans (doi:10.7554/elife.90254).
Read counts are not given, so values of variants with three or more changes are uncertain.

B1: LINE1-full (parent)
chain: UACGUAGGUGGUUUUCCCCUGAUAGUGCUAAGGGGGCCUGGAAGUUUGGACUGGGCAGAGCUCAACACAGCGUGGCAAAGUGGCUGUGGCUAGACUGCCUCUCUGGAUUCCUCGUCACUCAGCAGGGCAUCUCUGAGAGAAAUGCC

Variants of: B1
Experiment: self-cleavage, relative activity (ratio to wild type); higher = more cleavage; in vitro, sequencing; the parent is a self-cleaving ribozyme

| Variant | self-cleavage |
| --- | --- |
| A22G G89C A142C | 0.17 |
| A22G A65U U143G | 0.36 |
| G21A U102C A136U | 1.02 |
| U20A G33A U96C | 0.13 |
| A22G A78U A107C A142G | 2.86 |
| A22G G80A U119C | 1.96 |
| U20G U62C C99U U134A | 0.11 |
| U20A A78G U112C A124U | 1.14 |
| U20A A59G U100C A124C | 0.37 |
| U20G G36A A138U U143C | 0.67 |
| U20C A65G G105A U112C | 0.06 |
| U20C A31G U46A A138G A141G | 0.87 |
| U20C G49A U108C | 1.12 |
| U20C G41A U132G A142G | 2.06 |
| U20A U26A A124G | 1.14 |
| G21A U26C A79G U100C U102C | 0 |
| G21U C38U A79G U91C | 0.6 |
| U20A A65G A94G | 0.4 |
| A22G A50G A94G | 0 |
| A22G A92G U119C | 0.31 |
| A22G A121G U134A | 0.86 |

| Variant | self-cleavage |
| --- | --- |
| U20C A77U A142G | 0.82 |
| U20A U47C G53A A107U A117G A129G | 2.67 |
| U20C U39C A92G U112C | 0 |
| U20A U46A U134A A138G | 2.27 |
| U20C A92G C131G | 0 |
| A22G A43G U81A | 0.9 |
| U20A U52C A107G U108G A140G | 0 |
| U20A A42U A77G A138G | 2.27 |
| A22G A43G U52A | 1.19 |
| A22G A24U U100C | 1.53 |
| A22G A31U U62C U85C G122A | 0 |
| A22G G74A U115C | 1.98 |
| U20C G32A U39C G55A U104C | 0.84 |
| A22G A31U U62C U73A U96A U109C U112C | 0 |
| U20A U26A G33A U39C U46C A65G U100C | 0 |
| U20C U29A U45G A140G | 0.46 |
| U20C U108C A136U | 1.79 |
| U20C C118U A138G | 1.34 |
| A22G C131A A140U | 1.64 |
| A22G C71G A124U | 0.36 |
| A22G A42G U130C | 0.56 |

| Variant | self-cleavage |
| --- | --- |
| U20G A78G A92U | 0.38 |
| U20C U26C A59G U81A A94U U109A | 0.28 |
| U20A U62C U87C U132C G137A | 0.18 |
| A22G G35U U134C | 1.3 |
| U20C U46A U47A | 1.46 |
| U20C A121G C133A | 1.85 |
| U20C U47C C51U | 1.57 |
| U20C C38U U85C | 0.2 |
| U20A A43G U112C A129U | 1.99 |
| A22G A65G U85A U112C | 0 |
| U20A U39C U45C | 2 |
| U20C U23C A79G U96A U119C | 0 |
| A22G A59G A78G | 0.19 |
| U20C U29C U109C | 1.78 |
| U20C A57C U87C | 0 |
| U20C U87A A136G | 0.08 |
| U20C U52G A136G | 2.78 |
| U20C A64U A69U C90U U109C | 0.04 |
| U20C A22G U45C | 0.61 |
| A22G A42G U112C U119C | 0 |
| U20C U47A U62C A138G U143C | 0.23 |

| Variant | self-cleavage |
| --- | --- |
| U20A G40A A136G | 1.52 |
| U20C G32A A94G A136G | 0.63 |
| A22G G25A C66U | 0.14 |
| A22G G36C U109A A136G | 1.18 |
| A22G A43U C76U | 0.82 |
| U20C C63U G106A A107G U112C | 0.21 |
| U20A A79G C120U | 1.19 |
| G21A U45G A59U A78G U108C A138G | 0.73 |
| U20A A69G A124G | 0.22 |
| U20C C103U U119C | 1.61 |
| A22G A30G C56U U62C | 0.12 |
| U20A U45C A67G U73C A79U C123U | 2.8 |
| U20A U26C A69U G89A A92G A94U U132C | 0.11 |
| A22G A42G U132C | 1.45 |
| U20C U100C U112C | 1.97 |
| U20C A64U U115C | 0.52 |
| U20G U73A A142C | 1.13 |
| A22G A78G U81C U115C | 0 |
| U20C U39A A79G A117U | 1.38 |
| U20A U46C U85C U132C U134C | 0.16 |
